The structures appear in SMILES notation. Over roughly 110,000 compounds, “z-score” has its median near -0.1; the highest 2% begin near 2. This is one part of the list. The source made the active and inactive calls.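 How the source made its calls: active means z-score in the third read window above 3 or below -3; inactive means the rest.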

This assay deals with Metabotropic glutamate receptor 8 (Rattus norvegicus) (UniProt P70579). Kind of assay: rat mGluR8 modulators via GIRK flux, primary screen, cell-based, thallium flux, HTS (AID 488969). Particulars: HEK293 rat mGluR8, GIRK (G protein-gated inwardly rectifying potassium channel) thallium flux, FluoZin2; at 10 µM; stronger effect = higher value; submaximal glutamate (EC20) added with thallium.
UniProt P70579, sequence (P70579 whole entry, looked up): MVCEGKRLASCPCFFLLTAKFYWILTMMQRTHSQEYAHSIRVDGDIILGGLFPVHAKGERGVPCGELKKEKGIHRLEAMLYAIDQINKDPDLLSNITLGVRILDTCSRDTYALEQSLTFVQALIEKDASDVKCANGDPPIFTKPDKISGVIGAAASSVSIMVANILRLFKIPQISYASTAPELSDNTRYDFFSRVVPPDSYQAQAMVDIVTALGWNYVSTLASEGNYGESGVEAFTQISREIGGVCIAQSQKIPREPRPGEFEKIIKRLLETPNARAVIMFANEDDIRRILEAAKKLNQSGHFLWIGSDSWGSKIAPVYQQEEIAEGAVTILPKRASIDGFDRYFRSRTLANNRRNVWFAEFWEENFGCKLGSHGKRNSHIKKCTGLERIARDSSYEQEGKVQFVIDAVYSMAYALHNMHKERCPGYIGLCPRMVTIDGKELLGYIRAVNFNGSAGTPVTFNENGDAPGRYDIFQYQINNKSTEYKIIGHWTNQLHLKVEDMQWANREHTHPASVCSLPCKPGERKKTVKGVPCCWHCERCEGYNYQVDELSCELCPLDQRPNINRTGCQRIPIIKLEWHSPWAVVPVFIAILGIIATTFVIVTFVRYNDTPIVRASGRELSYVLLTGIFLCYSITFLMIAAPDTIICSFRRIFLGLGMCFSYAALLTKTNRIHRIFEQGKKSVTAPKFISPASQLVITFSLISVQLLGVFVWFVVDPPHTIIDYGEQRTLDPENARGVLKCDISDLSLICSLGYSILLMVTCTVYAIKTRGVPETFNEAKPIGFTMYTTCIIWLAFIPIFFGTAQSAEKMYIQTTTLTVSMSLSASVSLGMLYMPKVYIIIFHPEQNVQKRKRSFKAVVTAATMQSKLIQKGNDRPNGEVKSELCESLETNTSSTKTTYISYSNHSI
`C=CCc1cccc2cc(C(=O)NC3=C(C#N)CCC3)c(=O)oc12` registered a z-score of 1.03.

The compound `COc1ccccc1NC(=O)CCn1c(=O)sc2ccccc21` had a z-score of 0.642.

For the compound `CCC(=O)Nc1cc(C)c(NC(=O)c2ccco2)cn1`, the z-score was -0.0069.

Turning to `COC(=O)c1ccc(-n2nnnc2SCc2nn[nH]n2)cc1`, the z-score is -0.35.

The compound `CC(Sc1cnc2ccccc2n1)C(=O)O` (configuration not stated) yielded a z-score of 0.0744.

With `CC(C)Cn1c2c(c(O)c(C(=O)Nc3ncccc3O)c1=O)CCCC2`, the z-score is active: -4.45.

Take `OC1(c2cccc(C(F)(F)F)c2)CCN(Cc2nnnn2CCc2ccccc2)CC1`: the z-score was -0.00667.

Regarding `CC1CCCCN1CCNC(=O)CC1Oc2ccccc2NC1=O` (configuration not stated), the z-score was -0.354.

Turning to `CCOc1ccc(NC(=O)CN2C(=O)C3CC=CCC3C2=O)cc1` (configuration not stated), the z-score came out at 0.437.

Take `C#CCOC(=O)Nc1ccc(=O)n(Cc2c(Cl)cccc2Cl)c1`: the z-score was -0.298.

Turning to `O=C1CC(c2ccco2)Cc2nc(N3CCN(Cc4ccc5c(c4)OCO5)CC3)ncc21` (configuration not stated), the z-score was -0.464.

On to `O=C(c1ccccc1)c1ccc(C(=O)N2CCN(c3ccc(F)cc3)CC2)o1`, for which the z-score was -1.82.

`COc1ccc(NC(=O)Nc2ccccc2C(N)=O)cc1OC` yielded a z-score of 0.255.

Take `CCn1c(=O)c([N+](=O)[O-])c(NCCc2ccc(OC)c(OC)c2)c2ccccc21`: the z-score is -0.238.

Take `C=CCC1c2cccc(C(=O)O)c2C(=O)N1c1ccc(F)cc1` (configuration not stated): the z-score is -0.403.

Turning to `O=C1/C(=C\c2ccccc2Cl)SC(=S)N1CCC(=O)N1CCCc2ccccc21`, the z-score was -0.0232.

`O=C(/C=C/c1c(Cl)cccc1Cl)Nc1ccncc1`: the z-score was -0.208.

In the case of `Cc1cc(Br)ccc1OCCCCNCCO`, the z-score is 0.946.

As for `O=C(NCCCN1CCOCC1)c1c(O)c2cc(Br)cc(Br)c2[nH]c1=O`, the z-score is -0.0609.

Take `Cc1c(C(c2cccc(O)c2)c2c(C)n(C)n(-c3ccccc3)c2=O)c(=O)n(-c2ccccc2)n1C`: the z-score was -0.297.

Take `Cc1c(C(=O)NCCCN2CCCC2=O)oc2ccccc12`: the z-score was -0.3.

Take `COc1cccc(-n2c(Cc3cc(=O)[nH]c(=O)[nH]3)nnc2SCC(=O)NC2CCCCC2)c1`: the z-score is -0.198.

Turning to `Cc1ccc(S(=O)(=O)ON2C(=O)c3cccc4cccc(c34)C2=O)cc1`, the z-score is -0.368.

With `Cc1ccc(-c2nnc3ccc(SCC(=O)N4CCc5ccccc54)nn23)cc1`, the z-score was -0.87.

For the compound `COC(=O)c1cc(NS(=O)(=O)c2ccc(N3CCCCC3)c([N+](=O)[O-])c2)cc(C(=O)OC)c1`, the z-score was -0.0899.

Take `O=C(NC1(C(F)(F)F)N=C2SCCN2C1=O)c1cccnc1` (configuration not stated): the z-score is -0.234.

As for `N#Cc1ccccc1NC(=O)Nc1cccc(Cl)c1`, the z-score amounted to 0.496.

Turning to `Cc1cc(C)cc(N(CCC(=O)O)S(=O)(=O)c2ccc(Cl)cc2)c1`, the z-score was 0.192.

For `O=C(NCc1ccco1)C1CC(=O)N(c2ccc(O)cc2)C1` (configuration not stated), the z-score was -0.378.

On to `Cc1cccc(Oc2ncnc(N)c2[N+](=O)[O-])c1C`, for which the z-score is -0.172.

As to `Cc1cc(NC(=O)CSc2nc3ccc(Cl)cc3[nH]2)no1`, the z-score turned out to be 0.0229.

For the compound `Cc1cc(C)c2c(C)c(C(=O)NCc3ccncc3)oc2c1`, the z-score was -2.52.

`CCC(C(=O)Nc1ccncc1)c1ccccc1` (configuration not stated): the z-score is -0.281.

Consider `NC(=O)CSc1nnc(Cc2cccs2)n1C1CCCCC1`, for which the z-score was -0.113.

On to `COc1ccccc1C1CC(c2ccco2)=NN1c1ccccc1` (configuration not stated), for which the z-score was -0.166.

`Cc1ccc2nc(-c3ccc(SCC(=O)Nc4nc(C)cs4)nc3)[nH]c2c1` had a z-score of 0.228.

As to `O=C(Cc1ccc(Cl)cc1Cl)Nc1cccc(S(=O)(=O)Nc2ccccc2F)c1`, the z-score turned out to be 0.85.

On to `CONC(=O)Nc1ccccc1[N+](=O)[O-]`, for which the z-score was found to be 1.4.

For the compound `Cc1cccc(NC(=O)CC2NCCNC2=O)c1` (configuration not stated), the z-score is -0.726.

In turn, `COc1ccc(-c2cc(C(=O)O)c3sc(N4CCCCC4)nc3n2)cc1OC` returned a z-score of 0.117.

`N=c1c(C(=O)NCc2ccc(F)cc2)cc2c(=O)n3ccccc3nc2n1CC1CCCO1` (configuration not stated) had a z-score of 0.184.

Consider `CCOc1cccc2cc(C(=O)Nc3nccs3)c(=O)oc12`, for which the z-score is -0.156.

`C/C(=N\NC(=O)c1ccc(OC2CCCC2)cc1)c1ccc(C)s1`: the z-score amounted to 1.05.

As for `Cc1ccc(-c2cc(C(=O)NCc3ccco3)no2)cc1`, the z-score came out at 0.0404.

On to `Cc1ccccc1-n1nc(C(=O)c2cccs2)cc(-c2nc3ccccc3[nH]2)c1=N`, for which the z-score is -0.286.

Regarding `COc1ccc(S(=O)(=O)Nc2cc3c4c(oc3c3ccccc23)CC(C)(C)CC4=O)cc1`, the z-score is -0.212.

Take `CCn1cc(C(=O)C(F)(F)F)c2ccccc21`: the z-score is -0.0439.

As for `CCC1Oc2ccc(C)cc2N(CC(=O)N(Cc2cccnc2)Cc2cccc(F)c2)C1=O` (configuration not stated), the z-score was -0.143.

In the case of `O=C1[C@@H]2[C@H](C(=O)N1Cc1cccnc1)[C@H]1C=C[C@@H]2C1`, the z-score was -0.0773.

Regarding `Cc1ccc2oc(-c3cccc(NC(=O)Cc4cccs4)c3)nc2c1`, the z-score amounted to 0.0421.

Turning to `CSCCC(NC(=O)C1CCC(C)CC1)C(=O)O` (configuration not stated), the z-score worked out at 0.17.

Consider `O/N=C/c1ccccc1Oc1ccccc1`, for which the z-score is -0.288.

On to `CC(NC(=O)Nc1nccs1)(C(F)(F)F)C(F)(F)F`, for which the z-score came to 0.592.

For the compound `CCOC(=O)c1c(C)n(C)c2ccc(O)c(CN3CCCCC3)c12`, the z-score is 0.782.

For `COc1ccc(NS(=O)(=O)c2ccc3oc(SC4CCOC4=O)nc3c2)cc1` (configuration not stated), the z-score was -2.31.

`COCCCn1c(SCC(=O)OC2CCCCC2)nnc1-c1cccs1` displayed a z-score of 0.0234.

Consider `Cc1ccccc1-c1noc(-c2ccc(Cl)cc2)n1`, for which the z-score is -0.0855.

`CCCCNC(=O)C(Cc1ccccc1)NS(=O)(=O)c1ccc2c(c1)c(=O)n(C)c(=O)n2C` (configuration not stated): the z-score is -0.0593.

As for `Cc1nc(N)sc1N=Nc1ccc(Br)cc1`, the z-score is -0.153.

`O=C1CC(c2ccc(Cl)c(Cl)c2)CC(O)=C1C=NCCN1CCNCC1` (configuration not stated): the z-score is -0.194.

Regarding `CC(=O)c1c(C)nn(CC(O)COc2ccc3c(c2)CCC3)c1C` (configuration not stated), the z-score was -0.289.

In the case of `COC(=O)c1c(N)n(CCCN2CCOCC2)c2nc3ccccc3nc12`, the z-score is -0.011.

The compound `COC(=O)c1cn[nH]c1NC(=S)Nc1ccc(C)cc1Cl` displayed a z-score of 0.195.

For `CCN(CC)c1ccc(/C=N/NC(=O)c2c(Cl)c(C)nn2C)cc1`, the z-score is -0.21.

On to `COc1ccc(CNC(=O)CN(Cc2ccc(Cl)cc2)S(=O)(=O)c2ccccc2)cc1`, for which the z-score was -0.226.

Turning to `Cc1ccc(CNC(=O)CSc2ccc(-c3cccs3)nn2)cc1`, the z-score was 0.901.

Regarding `Cc1ccccc1C(=O)c1c[nH]c(C(N)=O)c1`, the z-score was -0.324.

Consider `CCOC(=O)CSc1cn2c(n1)CCC2`, for which the z-score came to 0.599.

As to `O=C(Nc1ccon1)c1cc(-c2ccccc2)nc2ccccc12`, the z-score was -1.67.

Compound `Cc1cc(C)c(NC(=O)CS(=O)CC(=O)NCCCc2ccccc2)c(C)c1` (configuration not stated) gave a z-score of 0.0707.

Turning to `O=C(Nc1cccc2nsnc12)c1ccc(-c2ccc(Br)cc2)o1`, the z-score was -0.0991.

In turn, `Cc1noc(/C=C/N(C)C)c1S(=O)(=O)N1CCCC(C(=O)NC2CCCCC2C)C1` (configuration not stated) came in with a z-score of 1.71.
